Results as given in the supplement of paper PMC11417369.
± gives the standard deviation of the averaged measurements. The list shows a part of the results.

Each sequence was assayed on PfAP2-LT AP2 domain (GST-tagged) (assay: gcPBM binding intensity (ln(normalized median fluorescence intensity)); higher = stronger DNA binding).
Summary of the method: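 GST-tagged P. falciparum DNA-binding domains, expressed in E. coli (about 25 μg on average), were applied for 1 h to an Agilent 4 × 180k array of primer-extended double-stranded 36-bp intergenic genomic probes plus negative controls. The binding buffer was 1× PBS with 1% milk, 0.2 mg/ml BSA, 0.5% salmon testes DNA and 0.03% Triton X-100. Bound protein was detected with Alexa488 anti-GST antibody and scanned at 488 nm. Binding intensity is the highest Masliner-normalised natural-log median intensity across replicate spots of either probe orientation.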

Sequence	gcPBM binding intensity (ln)
TTGATATCTTTTTTTTGTACATATATTTATAAGTAA [XGTACX_site3538]	8.49 ± 0.35
AAAATATAAGCCACTACACACATATATAAATGTATA [CACACA_site2639]	9.16 ± 0.35
TTTTAGAGTGATATATATTAACTTTTAATAAAAAAA [CACACA_negctrl_site611]	8.1 ± 0.49
TTTTTTTAAATTATATGTACATAATTTTAATTTTAT [XGTACX_site5086]	8.54 ± 0.52
ATACATATATTTTTATGTACATATATTTTTTTTGTA [XGTACX_site4546]	8.74 ± 0.47
TAAAGTACAGGAGTAAATTGAAAAAAAAAAAAAAAA [CACACA_negctrl_site1410]	8.5 ± 0.57
TATAATATTCCTTTTTAACACACATATGAACAAATA [CACACA_site7932]	8.62 ± 0.41
ATAAATAAATAAATACGTACATATATATATATATAT [XGTACX_site8838]	9.53 ± 0.042
TTACCTATTCTAAAATGTACACATTATATATGTGCT [XGTACX_site5776]	9.04 ± 0.5
ACATGTTTCATATGTTGTACTAACTTAAATATAAAT [XGTACX_site6412]	8.61 ± 0.48
AACACTCAAAAAAATTTAAATAAAAAAAAAAAAAAA [CACACA_negctrl_site680]	8.31 ± 0.59
TATGGAAGAAAATATACACACAAAAAAAAAAAATGG [CACACA_site4924]	9.12 ± 0.41
ATGATTTTTTTTATTTTTTAGCTAGAGCTAGCTTAT [CACACA_negctrl_site433]	8.62 ± 0.52
ATATGTTAAAAATTCACACAAAAAAGTATACAGATA [CACACA_site4179]	8.99 ± 0.4
TATGAATGCTTTTATGCACACGTACAAAAATATTAT [CACACA_site8851]	8.88 ± 0.37
TTAACTATAATAAAATGTACATATGTAACATATATA [XGTACX_site7790]	8.66 ± 0.4
TTATAACAAAAAATTAAAGAAAGAGAATAAGTGAAA [CACACA_negctrl_site975]	8.62 ± 0.5
AGGTCCTACACCAATAAATATCATATATATATTATA [CACACA_negctrl_site568]	8.62 ± 0.45
TTGTACATCTTTTGCACACGTAATGTTATTAAAATA [CACACA_site4827]	8.89 ± 0.38

Sequence	gcPBM binding intensity (ln)
TGTATATTTGTTGTTACACACATATATTTTTTTTTT [CACACA_site128]	8.96 ± 0.43
TTATTGTAAATATATGCATGTGCAAAATGAAAAAAA [TGCATGCA_site399]	8.77 ± 0.52
TTTTAAACAAGACACACACACATATATATATATATA [CACACA_site925]	9.84 ± 0.11
ATGTTTACATATTAGGGTACATAATAAATTGCATAT [XGTACX_site6712]	8.66 ± 0.38
CATGTATTTTATATTACACACTAATATTATATATAT [CACACA_site1508]	8.85 ± 0.35
GAATGTATAAAATGAACACACGCCAAATTAAATGAA [CACACA_site3044]	9.12 ± 0.42
AAAAATAATGCACATATATATAATATGTATATGTAT [CACACA_negctrl_site443]	8.92 ± 0.45
AAAAAATTAAATAATTACAAAAAAATAAAATAAAAA [GTGCAC_negctrl_site638]	8.48 ± 0.67
AATAAACAAATATGTACACACATATACCTATAAATA [CACACA_site7358]	9.17 ± 0.37
ATATTAGATTAATTTACACACAGAAAATGAGATTTT [CACACA_site541]	8.77 ± 0.39
CCAACATATATTATCACACACATATATATATATATA [CACACA_site2016]	9.69 ± 0.24
TAGAGTATATATAAATGTACATATTTTATGCTAATT [XGTACX_site7821]	8.69 ± 0.45
AAACAATACATATATTGTACATATATTATATTATAT [XGTACX_site8136]	8.88 ± 0.43
AATTTGAAATAAAGTAGTACAGTATATAAAAATATA [XGTACX_site128]	8.73 ± 0.46
TTAGAAATTCATTTTACACACAATTCAAAAGAATGT [CACACA_site2104]	8.79 ± 0.42
CGGATCTATAAGTGTACACAATCTAGCGAAAAGTTT [CACACA_site4932]	8.88 ± 0.42
AAAAAATCAAAACACACACACACACCCAAAAAAAAA [CACACA_site1444]	10.2 ± 0.37
ATAATGATTATAATATGTACATAAATATATATATTA [XGTACX_site5029]	8.74 ± 0.47
AATAAATAAACAAATTAACACACAGAATTTTTTTTT [CACACA_site8485]	8.79 ± 0.43

Sequence	gcPBM binding intensity (ln)
ATTATGTTATATATATGTACATATATAATGTTCATA [XGTACX_site6184]	8.79 ± 0.35
ATAATTATAAAATAAACACACATATATATTTATATG [CACACA_site440]	8.74 ± 0.43
ATAAAATAAAAAAGTAGTACACACTTCACGATATTT [XGTACX_site8289]	8.96 ± 0.46
TAAGAATTGAAAAAATGTACACAATATAAAATTGAA [XGTACX_site698]	8.61 ± 0.54
CCTATTTATTTATACACACACATATATAAATAAATA [CACACA_site7417]	9.04 ± 0.31
AAAACAAATAAGTAAACACACATATAAAATCTATAT [CACACA_site7262]	9.18 ± 0.48
TTATGTAAATGCTTATGTACTTATTACAATATTTTT [XGTACX_site4057]	8.81 ± 0.56
TTTATTACTATGTAAACACACATGCAATATATGTTA [CACACA_site1114]	8.81 ± 0.42
AAAAAGAAAAAAAAATGTACATAAAGTCTAATGATA [XGTACX_site4781]	8.78 ± 0.49
ATATTATATAAATACACACACACATGCATGCACATA [CACACA_site4236]	9.92 ± 0.24
AAAAAGAATAAATAAATAAATAAATATATATATATA [GTGCAC_negctrl_site584]	8.91 ± 0.4
TATTAATCATATAAATGTACGTATATATATTTTTCT [XGTACX_site1421]	8.71 ± 0.48
ATATATATATATATAACACACGTGTATATATATGTA [CACACA_site3644]	9.51 ± 0.35
TATAATATATTATAACGTACAAATATATATATAAAA [XGTACX_site6581]	8.75 ± 0.47
CAATCATAGAAAAACAGTACGTGTAGCAAACATCCT [XGTACX_site4889]	9.07 ± 0.29
AAAAAAAAAAAATATATATATATATATATATATATA [CACACA_negctrl_site1606]	10 ± 0.22
TATATATATTATATATGTACATATATTTTTTTTTTT [XGTACX_site127]	8.77 ± 0.49
ATTTATATTACAAAAAGTACACACATAAATAAATAC [XGTACX_site1827]	9.06 ± 0.21
